This is an account of results in publication PMC6919601, “Identification of Plasmodium dipeptidyl aminopeptidase allosteric inhibitors by high throughput screening” (PLoS ONE, 2019).

The structures appear in SMILES notation. In all, about 110,000 compounds went through this assay and about 230 (0.21%) showed an effect of 50% or more. Some of the results follow.
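Note: 30 min substrate incubation versus DMSO and 10 µM JCP410 controls.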

Sequence of DPAP1 (Q8IIJ9 whole entry, looked up): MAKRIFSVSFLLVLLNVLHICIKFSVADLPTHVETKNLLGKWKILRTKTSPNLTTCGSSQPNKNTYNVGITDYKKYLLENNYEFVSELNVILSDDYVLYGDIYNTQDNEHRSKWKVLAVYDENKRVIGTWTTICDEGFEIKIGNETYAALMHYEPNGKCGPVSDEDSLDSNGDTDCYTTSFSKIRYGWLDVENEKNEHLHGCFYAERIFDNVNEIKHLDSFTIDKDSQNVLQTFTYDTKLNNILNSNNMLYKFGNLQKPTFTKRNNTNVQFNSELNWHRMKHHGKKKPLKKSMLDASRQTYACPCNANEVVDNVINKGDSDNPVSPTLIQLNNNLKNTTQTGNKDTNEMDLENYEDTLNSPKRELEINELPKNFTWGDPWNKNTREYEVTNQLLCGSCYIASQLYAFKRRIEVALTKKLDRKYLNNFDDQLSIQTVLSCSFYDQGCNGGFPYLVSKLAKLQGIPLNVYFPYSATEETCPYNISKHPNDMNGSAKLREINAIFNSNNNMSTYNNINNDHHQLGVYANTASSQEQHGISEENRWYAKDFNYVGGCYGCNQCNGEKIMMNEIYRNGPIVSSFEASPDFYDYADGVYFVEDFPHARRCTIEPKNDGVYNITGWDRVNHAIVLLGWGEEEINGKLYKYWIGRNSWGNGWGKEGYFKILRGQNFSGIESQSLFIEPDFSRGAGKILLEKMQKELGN

The assay concerns the target DPAP1 (Plasmodium falciparum, UniProt Q8IIJ9). Description: primary screen, percent inhibition; read by cleavage of a fluorogenic dipeptide substrate; higher = more effect of the substance. Also on record: species or system P. falciparum D10 trophozoite lysates; single well.
As to `Cn1c(CN2CCOCC2)nc(=O)c2ccccc21`, the “% Inhibition @ 10 uM” value is recorded as -0.999%.
As for `FC(F)(F)c1cccc(N2CCN(Cc3cccc(Br)c3)CC2)c1`, the figure is -7.33%.
As for `O=C(Cn1c2ccccc2c2cnnc(O)c21)NCCCN1CCCC1=O`, the figure is -2%; as for `COc1ccccc1-n1nnc(-c2nc(-c3ccccc3C)no2)c1N`, 2.19%.
As for `Cc1oc2c(C)c3oc(=O)c(CC(=O)O)c(C)c3cc2c1C`, the figure is 0.558%; as for `COc1cc2nc(NCC3CCCO3)n3nc(-c4ccccc4)nc3c2cc1OC` (stereo not shown), 2.6%; as for `COc1cc(-c2noc(CCC(=O)NC(C)C)n2)cc(OC)c1OC`, 2.02%.
As to `CCc1nc2ccc(C(=O)NCCN3CCN(C)CC3)cc2nc1CC`, the “% Inhibition @ 10 uM” value worked out at 4.85%.
As for `CC(C)C(C(=O)N1CCCCCC1)N1C(=O)c2ccccc2C1=O` (stereo not shown), the figure is -2.69%; as for `CC(=O)Nc1ccc2c(c1)C1C=CCC1C(c1ccccc1F)N2` (stereo not shown), 3.44%.
With `O=C(OCCN1CCCCC1)c1sc2cccc(F)c2c1Cl` the figure was -6.42%.
Consider `CC(=O)Nc1ccc(NC(=O)CSc2ncnc3sc4c(c23)CCCC4)cc1`, for which the “% Inhibition @ 10 uM” value is -5.7%.
As for `O=c1c2c3c(sc2n(Cc2cc(=O)n4ccccc4n2)c(=O)n1Cc1ccccc1)CCCC3`, the figure is 2.17%; as for `COC(=O)c1cccc(-n2c(C)ccc2-c2ccccc2)c1`, -8.57%.
With `COC(=O)c1ccc(C(=O)OC)s1` the figure was -5.47%; with `Cc1cc(NC(=O)C(=O)c2c(C)[nH]c3ccccc23)no1`, -2.63%; with `COc1ccc(C(=O)Nc2c(C)nn(Cc3ccc(F)cc3)c2C)cc1OC`, 1.67%.
`CCOC(=O)C1CCCCN1Cc1c(F)cccc1F` (stereo not shown): the “% Inhibition @ 10 uM” value is -1.75%.
As for `C=CCOc1ccc(C(=O)C2=C(O)C(=O)N(CCCN(C)C)C2c2ccc(C(C)C)cc2)c(C)c1` (stereo not shown), the figure is 6.27%.
With `COc1ccc(Br)cc1C1C2=C(O)CCCC2=NC(C)=C1C(=O)N1CCOCC1` (stereo not shown), the “% Inhibition @ 10 uM” value stood at 7.93%.
In the case of `CCOc1ccc(C2C(C#N)=C(N)Oc3cc(N)ccc32)cc1` (stereo not shown), the “% Inhibition @ 10 uM” value stood at 3.54%.
As for `COc1ccc2[nH]c3c(=O)n(CC(=O)NCc4ccco4)c(=S)[nH]c3c2c1`, the figure is 1.15%; as for `Cc1cc(C)nc(NC(=O)CCCC(=O)O)c1`, -4.77%.
As for `Cc1ccc(S(=O)(=O)NCCCSC2CCCCC2)cc1`, the figure is -4.97%.
With `CN(C)c1ccc(/C=C/C(=O)c2cccc([N+](=O)[O-])c2)cc1` the figure was -0.0217%; with `Cc1cc(N)n(-c2ccc(S(=O)(=O)O)cc2)n1`, -2.49%; with `Cc1ccc(CNS(=O)(=O)c2csc(C(N)=O)c2)cc1`, 2.75%.
Regarding `C=Cc1ccc(Cn2c(C)c(CNC3CCC(C)CC3)c(C(=O)O)c2C)cc1` (stereo not shown), the “% Inhibition @ 10 uM” value was found to be 2.99%.
With `Cc1cc(O)nc2cc(N(C)C)ccc12` the figure was -7.87%; with `COc1ccc(-c2nc(C#N)c(NCc3ccccc3Cl)o2)cc1`, -5.1%; with `COc1ccc(C2=C(C)C(N3CCC(Cc4ccccc4)CC3)=NS2(=O)=O)cc1`, -4.68%.
As for `CC1(C)CC2=Nc3nnnn3C(c3ccccc3Cl)C2=C(O)C1` (stereo not shown), the figure is 3.32%; as for `CC1CCN(C(=O)C(C(C)C)N2C(=O)c3cccc4cccc(c34)C2=O)CC1` (stereo not shown), -3.93%; as for `CCCNC(=O)CCCN1C(=O)CSc2ncccc21`, -2.37%.
As for `CCn1cc(/C=C(\NC(=O)c2ccc(C)cc2)C(=O)NCCCO)c2ccccc21`, the figure is 3.24%; as for `O=C1CC(NCCc2ccccc2Cl)C(=O)N1c1ccccc1` (stereo not shown), -2.32%.
For the compound `COc1ccc(C(=O)CC2(O)C(=O)Nc3ccc(Br)cc32)cc1` (stereo not shown), the “% Inhibition @ 10 uM” value was -5.3%.
Regarding `Cc1ccccc1CNC(=O)Cn1ncn2c(cc3cc(F)ccc32)c1=O`, the “% Inhibition @ 10 uM” value was 0.0198%.
As for `Cc1c(CNC2CCCC(C)C2C)c(C(=O)O)c(C)n1Cc1ccc(F)cc1` (stereo not shown), the figure is 6.02%; as for `O=S(=O)(Nc1cccc(C(F)(F)F)c1)c1ccc(Cl)cc1`, 1.27%; as for `CCN1CCN(Cc2nc3c(c(=O)[nH]c(=O)n3C)n2CCCc2ccccc2)CC1`, 15.5%.
As for `COc1ccc(-c2csc3ncn(Cc4ccccc4C)c(=O)c23)cc1`, the figure is -6.2%.
`N#CC1=C(N)Oc2c(O)nc(O)nc2C1c1ccccc1[N+](=O)[O-]` (stereo not shown): the “% Inhibition @ 10 uM” value turned out to be 1.7%.
Take `OCCN1CCN(CC(O)COc2ccccc2)CC1` (stereo not shown): the “% Inhibition @ 10 uM” value was -3.04%.
Consider `CC(C)c1ccc(-c2nc3c(=O)n(C)c(=O)n(C)c3[nH]2)cc1`, for which the “% Inhibition @ 10 uM” value turned out to be 2.09%.
With `Cn1c(=O)c2c(nc(S)n2Cc2cccc(C(F)(F)F)c2)n(C)c1=O` the figure was -3.19%; with `O=C(O)c1c(CNC2CCN(Cc3ccccc3)CC2)c2ccccc2n1Cc1ccc(Cl)cc1`, 0.277%; with `CC1(C)CC(=O)C2=C(C1)OC1=C(C(=O)CC(C)(C)C1)C2c1c[nH]nc1-c1ccccc1`, 25.5%.
As for `O=C(/C=C/c1ccccc1)NC(=S)Nc1ccc(S(=O)(=O)Nc2nccs2)cc1`, the figure is -11.4%.
As for `CCCN(CCC)S(=O)(=O)c1ccc(NS(C)(=O)=O)cc1`, the figure is -6.86%; as for `CC(=O)Nc1ccc(NC(=O)CCC2CCCC2)cc1`, -0.884%.
On to `O=C(c1ccccc1)N1CC(COc2ccccc2)OC(c2cccnc2)O1` (stereo not shown), for which the “% Inhibition @ 10 uM” value is reported as -5.63%.
Take `O=C1CCC(=O)N1CCCn1c2ccccc2c2nc3ccccc3nc21`: the “% Inhibition @ 10 uM” value is on record as -0.0235%.
As for `CCOc1ccc(NS(=O)(=O)c2ccc(NC(=O)c3ccccc3C)cc2)cc1`, the figure is -5.32%; as for `Brc1ccc(Sc2nc3ccccc3[nH]2)cc1`, -1.96%.
With `CC1(c2ccc(F)cc2)NC(=O)NC1=O` (stereo not shown) the figure was -1.5%; with `CN(Cc1ccccc1)C(=O)COc1ccc(Cl)cc1`, 1.62%; with `CCOc1ccc(N2C(=O)CC(NCc3ccccc3Cl)C2=O)cc1` (stereo not shown), -2.99%.
With `CCCOc1ccc(/C=C2\C(=O)N(CCOC)C(C)=C2C(=O)OC)cc1OCC` the figure was -6.17%.
As to `COc1ccc(-c2ncnn2-c2cccc(C(F)(F)F)c2)cc1`, the “% Inhibition @ 10 uM” value was -1.15%.
With `CN(C)c1nccc(N(Cc2ccccc2)Cc2ccccc2)c1C#N` the figure was 15.9%; with `CC(=O)c1c(-c2ccccc2)nc2n(C)c3cc(C)c(C)cc3n12`, -6.88%; with `COc1cc(/C=C2/N=C(c3cccc(Cl)c3Cl)OC2=O)cc(OC)c1OC`, -8.18%.
Take `CC(C)(C)c1ccc(C(=O)OCCN2CCCCC2)cc1`: the “% Inhibition @ 10 uM” value is on record as -1.81%.
Regarding `Cc1ccc(CNc2oc(COc3cccc(C)c3)nc2C#N)cc1`, the “% Inhibition @ 10 uM” value is 1.43%.
Regarding `CN(CC(=O)NCCN1CCN(Cc2ccccc2)CC1)S(=O)(=O)c1cccc2nsnc12`, the “% Inhibition @ 10 uM” value is given as -1.43%.
As to `Cc1c(C(=O)NCCN2CCc3ccccc3C2)sc2nc3n(c(=O)c12)CCCCC3`, the “% Inhibition @ 10 uM” value was -4.74%.
As for `CN(C)c1nc2ccc(O)cc2s1`, the figure is -7.55%.
On to `CC(=O)N1C(=O)CC(C)N(C(C)=O)c2ccc([N+](=O)[O-])cc21` (stereo not shown), for which the “% Inhibition @ 10 uM” value was 0.847%.
Regarding `CSc1ccc(/C=C(/C#N)C(=O)Nc2ccc(Cl)cc2)cc1`, the “% Inhibition @ 10 uM” value was -1.54%.
With `c1cc2noc3c4cccc5noc(c(c1)c23)c54` the figure was -0.994%; with `COC1CCCCC1Nc1ccccc1` (stereo not shown), 3.44%; with `CCc1nc(N)c(C#N)c(-c2ccccc2OC)c1C`, 6.1%.
As for `Cc1ccc(NC(=O)Cn2cc(S(=O)(=O)N3CCCC3)c(S(=O)(=O)N3CCCC3)c2)nc1`, the figure is -1.7%; as for `Cc1c(CNC(C)c2ccccc2)c(C(=O)O)c(C)n1Cc1ccc(F)cc1` (stereo not shown), -5.49%.
With `Cc1ccc(C2=NC3(CCNCC3)NC2=S)cc1` the figure was 0.351%.
`CCOC(=O)c1cc(-c2ccc(OC)c(S(=O)(=O)N3CCOCC3)c2)on1`: the “% Inhibition @ 10 uM” value is -6.25%.
As for `Clc1nc2ccccc2nc1NCc1ccco1`, the figure is 8.36%; as for `Cc1nn(CCCC(=O)NCc2ccccc2Cl)c(=O)c2c1sc1ccccc12`, -4.93%.
As for `CCn1cc(CNC(=O)c2cc(-c3ccccc3OC)nc3ccccc23)c(C)n1`, the “% Inhibition @ 10 uM” value was -9.75%.
With `CC1=NC2(CCCCC2)Cc2ccccc21` the figure was 4%; with `Cc1cccc(NCC(O)Cn2c(C)c(C)c3ccccc32)c1` (stereo not shown), 0.389%.
With `CCOC(=O)C(=O)N1CCc2ccccc2C1` the figure was -5.7%; with `N#CCNC(=O)[C@@H]1CCCC[C@@H]1CSC1=NCCS1`, -3.04%.
Consider `Cc1ccc(C(=O)Nc2ccc(C)c(C)c2)o1`, for which the “% Inhibition @ 10 uM” value is recorded as 4.05%.
As for `COc1ccc(O)c(/C=N/c2sc3c(c2C#N)CCCC3)c1`, the “% Inhibition @ 10 uM” value is 1.12%.
With `Cc1scc(CN2CCN(c3ccccn3)CC2)c1C`, the “% Inhibition @ 10 uM” value is -6.98%.
For the compound `COC(=O)c1ccc(CSc2ccccc2)cc1`, the “% Inhibition @ 10 uM” value is -1.68%.
With `COc1ccc(CN2CCC(Cc3ccccc3)CC2)cc1O` the figure was 0.847%; with `CC1CCCC(NC(=O)C2CCN(S(=O)(=O)c3c[nH]cn3)CC2)C1C` (stereo not shown), -0.499%; with `COc1ccc(/C=C2\C(=O)C(=O)c3ccccc32)cc1`, 7.99%.
As to `CCN(c1ccccc1C)S(=O)(=O)c1cc(Cl)ccc1Cl`, the “% Inhibition @ 10 uM” value worked out at 4.03%.
For the compound `CCOc1ccc(C(=O)N2CCc3cc(OC)c(OC)cc3C2c2ccccc2)cc1` (stereo not shown), the “% Inhibition @ 10 uM” value turned out to be 3.59%.
As for `CC(=O)C1=C(C)NC(SCC(=O)Nc2nc3ccccc3s2)=C(C#N)C1c1cccnc1` (stereo not shown), the figure is 4.08%; as for `COc1cc(C(=O)NC(C)C(c2cccs2)N2CCOCC2)cc(OC)c1OC` (stereo not shown), 2.34%; as for `Fc1ccccc1N1CCN(Cc2cccc(Br)c2)CC1`, 1.2%.
With `Oc1ccc(SCCCCN2CCOCC2)cc1` the figure was 5.66%; with `Cc1cc(C(=O)NCc2ccco2)on1`, -5.25%.
Take `COc1ccc(NC(=S)N2CCN(Cc3ccccc3)CC2)cc1`: the “% Inhibition @ 10 uM” value came out at 4.26%.
On to `C=CCn1c(Oc2ccccc2)nc2c1c(=O)n(C)c(=O)n2C`, for which the “% Inhibition @ 10 uM” value is on record as -1.92%.
As for `Cc1ccc(-c2c(N3CCN(C4CCCCC4)CC3)c(=O)c2=O)cc1C`, the figure is 3.04%.
As for `Cc1cccc(NC(=O)CN2C(=O)N/C(=C/c3ccc(O)cc3)C2=O)c1`, the “% Inhibition @ 10 uM” value is listed as -7.61%.
With `CCN(CC)S(=O)(=O)N1CCC(C(=O)NCc2ccc3c(c2)OCO3)CC1` the figure was -4.06%.
